In paper PMC8463077:
Results are given in words; binding and its absence hold for the method and conditions named. For some assays here: In cells and extracts the contact can be indirect. Some results given as binding are weak or reduced against the parent protein; the word gives no strength. For some assays here: Sequences can lack the tags named with a protein.

Sequences of proteins named here, by UniProt entry; tags and fusion partners are left off.
UniProt P46937: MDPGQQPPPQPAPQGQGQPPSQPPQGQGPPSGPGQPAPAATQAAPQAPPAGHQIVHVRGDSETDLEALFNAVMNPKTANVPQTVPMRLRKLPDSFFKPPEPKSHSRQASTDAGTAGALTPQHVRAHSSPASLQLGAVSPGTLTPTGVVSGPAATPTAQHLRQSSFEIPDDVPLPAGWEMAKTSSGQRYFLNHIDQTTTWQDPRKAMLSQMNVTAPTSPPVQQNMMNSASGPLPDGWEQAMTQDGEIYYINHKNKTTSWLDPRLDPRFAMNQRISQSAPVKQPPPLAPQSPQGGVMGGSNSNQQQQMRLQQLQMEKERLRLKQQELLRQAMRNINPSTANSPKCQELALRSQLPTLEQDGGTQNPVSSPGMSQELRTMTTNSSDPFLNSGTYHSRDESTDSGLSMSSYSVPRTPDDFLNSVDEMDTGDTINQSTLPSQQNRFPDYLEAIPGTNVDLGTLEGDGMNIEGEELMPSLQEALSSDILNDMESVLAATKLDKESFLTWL
UniProt Q9GZV5: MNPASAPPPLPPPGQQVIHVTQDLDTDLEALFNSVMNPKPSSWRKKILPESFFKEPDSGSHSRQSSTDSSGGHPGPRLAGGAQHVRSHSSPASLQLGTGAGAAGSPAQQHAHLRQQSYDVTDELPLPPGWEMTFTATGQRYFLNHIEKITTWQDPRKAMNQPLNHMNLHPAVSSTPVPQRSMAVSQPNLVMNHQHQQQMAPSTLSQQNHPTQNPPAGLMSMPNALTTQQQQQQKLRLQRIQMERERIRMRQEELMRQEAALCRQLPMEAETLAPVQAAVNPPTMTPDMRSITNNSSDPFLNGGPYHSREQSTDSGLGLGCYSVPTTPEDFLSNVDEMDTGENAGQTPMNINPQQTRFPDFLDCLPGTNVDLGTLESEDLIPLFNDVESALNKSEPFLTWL

Legend:
[1] = target: HA-tagged YAP (wild type), P46937; assay: co-IP; HA-tagged YAP or TAZ derivatives co-expressed with FLAG-tagged STAT3 or JUNB in 293T cells for 2 days; IP with anti-HA antibody or control IgG, Dynabead protein G; co-IP buffer 50 mM Tris pH 7.5, 100 mM NaCl, 1.5 mM EGTA, 0.1% Triton X-100; 4°C overnight; conditions: remark: other sources report otherwise
[2] = target: HA-tagged TAZ (wild type) (UniProt Q9GZV5); assay: as above
[3] = target: YAP (human (endogenous in MCF-10A-ER-Src)), P46937; assay: co-IP; endogenous proteins in nucleoplasm and chromatin fractions of non-transformed (ethanol) and transformed (tamoxifen) MCF-10A-ER-Src cells; antibodies against the indicated proteins or IgG control, Dynabead protein G; co-IP buffer 50 mM Tris pH 7.5, 100 mM NaCl, 1.5 mM EGTA, 0.1% Triton X-100; 4°C overnight; co-IP in general more efficient in transformed cells; conditions: remark: other sources report otherwise
[4] = target: YAP (human (endogenous in MCF-10A-ER-Src)) (UniProt P46937); assay: co-IP; endogenous proteins in the cytoplasm fraction of non-transformed (ethanol) and transformed (tamoxifen) MCF-10A-ER-Src cells; antibodies against the indicated proteins or IgG control, Dynabead protein G; co-IP buffer 50 mM Tris pH 7.5, 100 mM NaCl, 1.5 mM EGTA, 0.1% Triton X-100; 4°C …
[5] = target: TAZ (human (endogenous in MCF-10A-ER-Src)) (UniProt Q9GZV5); assay: as above
[6] = target: TAZ (human (endogenous in MCF-10A-ER-Src)) (UniProt Q9GZV5); assay: co-IP; endogenous proteins in nucleoplasm and chromatin fractions of non-transformed (ethanol) and transformed (tamoxifen) MCF-10A-ER-Src cells; antibodies against the indicated proteins or IgG control, Dynabead protein G; co-IP buffer 50 mM Tris pH 7.5, 100 mM NaCl, 1.5 mM EGTA, 0.1% Triton X-100; 4°C overnight; co-IP in general more efficient in transformed cells
[7] = target: His-tagged recombinant YAP, P46937; assay: co-IP; in vitro, pairs of E. coli-generated His-tagged recombinant proteins; co-IP procedure similar to that for lysates; western blot of input (10%) and IP; both purified; conditions: remark: other sources report otherwise
[8] = target: His-tagged recombinant TAZ (UniProt Q9GZV5); assay: as above

B1: FLAG-tagged JUNB, P17275 1-347 (protein)
chain: MCTKMEQPFYHDDSYTATGYGRAPGGLSLHDYKLLKPSLAVNLADPYRSLKAPGARGPGPEGGGGGSYFSGQGSDTGASLKLASSELERLIVPNSNGVITTTPTPPGQYFYPRGGGSGGGAGGAGGGVTEEQEGFADGFVKALDDLHKMNHVTPPNVSLGATGGPPAGPGGVYAGPEPPPVYTNLSSYSPASASSGGAGAAVGTGSSYPTTTISYLPHAPPFAGGHPAQLGLGRGASTFKEEPQTVPEARSRDATPPVSPINMEDQERIKVERKRLRNRLAATKCRKRKLERIARLEDKVKTLKAENAGLSSTAGLLREQVAQLKQKVMTHVSNGCQLLLGVKGHAF
B1 was tested, and the binding [1] was “binds”.

B2: FLAG-tagged JUNB (protein, UniProt P17275 1-347)
chain: MCTKMEQPFYHDDSYTATGYGRAPGGLSLHDYKLLKPSLAVNLADPYRSLKAPGARGPGPEGGGGGSYFSGQGSDTGASLKLASSELERLIVPNSNGVITTTPTPPGQYFYPRGGGSGGGAGGAGGGVTEEQEGFADGFVKALDDLHKMNHVTPPNVSLGATGGPPAGPGGVYAGPEPPPVYTNLSSYSPASASSGGAGAAVGTGSSYPTTTISYLPHAPPFAGGHPAQLGLGRGASTFKEEPQTVPEARSRDATPPVSPINMEDQERIKVERKRLRNRLAATKCRKRKLERIARLEDKVKTLKAENAGLSSTAGLLREQVAQLKQKVMTHVSNGCQLLLGVKGHAF
In the case of B2, the binding [2] is reported as “binds”.

B3: JUNB, P17275 1-347 (protein)
chain: MCTKMEQPFYHDDSYTATGYGRAPGGLSLHDYKLLKPSLAVNLADPYRSLKAPGARGPGPEGGGGGSYFSGQGSDTGASLKLASSELERLIVPNSNGVITTTPTPPGQYFYPRGGGSGGGAGGAGGGVTEEQEGFADGFVKALDDLHKMNHVTPPNVSLGATGGPPAGPGGVYAGPEPPPVYTNLSSYSPASASSGGAGAAVGTGSSYPTTTISYLPHAPPFAGGHPAQLGLGRGASTFKEEPQTVPEARSRDATPPVSPINMEDQERIKVERKRLRNRLAATKCRKRKLERIARLEDKVKTLKAENAGLSSTAGLLREQVAQLKQKVMTHVSNGCQLLLGVKGHAF
For B3, the binding [3] was “binds”.

B4: JUNB (protein, UniProt P17275 1-347)
chain: MCTKMEQPFYHDDSYTATGYGRAPGGLSLHDYKLLKPSLAVNLADPYRSLKAPGARGPGPEGGGGGSYFSGQGSDTGASLKLASSELERLIVPNSNGVITTTPTPPGQYFYPRGGGSGGGAGGAGGGVTEEQEGFADGFVKALDDLHKMNHVTPPNVSLGATGGPPAGPGGVYAGPEPPPVYTNLSSYSPASASSGGAGAAVGTGSSYPTTTISYLPHAPPFAGGHPAQLGLGRGASTFKEEPQTVPEARSRDATPPVSPINMEDQERIKVERKRLRNRLAATKCRKRKLERIARLEDKVKTLKAENAGLSSTAGLLREQVAQLKQKVMTHVSNGCQLLLGVKGHAF
B4 was tested, and the binding [4] was “no binding (condition: cytoplasm fraction)”, the binding [5] was “no binding (condition: cytoplasm fraction)” and the binding [6] was “binds”.

B5: His-tagged recombinant JUNB, P17275 1-347 (protein)
chain: MCTKMEQPFYHDDSYTATGYGRAPGGLSLHDYKLLKPSLAVNLADPYRSLKAPGARGPGPEGGGGGSYFSGQGSDTGASLKLASSELERLIVPNSNGVITTTPTPPGQYFYPRGGGSGGGAGGAGGGVTEEQEGFADGFVKALDDLHKMNHVTPPNVSLGATGGPPAGPGGVYAGPEPPPVYTNLSSYSPASASSGGAGAAVGTGSSYPTTTISYLPHAPPFAGGHPAQLGLGRGASTFKEEPQTVPEARSRDATPPVSPINMEDQERIKVERKRLRNRLAATKCRKRKLERIARLEDKVKTLKAENAGLSSTAGLLREQVAQLKQKVMTHVSNGCQLLLGVKGHAF
For B5, the binding [7] was “binds”.

B6: His-tagged recombinant JUNB (protein, UniProt P17275 1-347)
chain: MCTKMEQPFYHDDSYTATGYGRAPGGLSLHDYKLLKPSLAVNLADPYRSLKAPGARGPGPEGGGGGSYFSGQGSDTGASLKLASSELERLIVPNSNGVITTTPTPPGQYFYPRGGGSGGGAGGAGGGVTEEQEGFADGFVKALDDLHKMNHVTPPNVSLGATGGPPAGPGGVYAGPEPPPVYTNLSSYSPASASSGGAGAAVGTGSSYPTTTISYLPHAPPFAGGHPAQLGLGRGASTFKEEPQTVPEARSRDATPPVSPINMEDQERIKVERKRLRNRLAATKCRKRKLERIARLEDKVKTLKAENAGLSSTAGLLREQVAQLKQKVMTHVSNGCQLLLGVKGHAF
B6 was tested, and the binding [8] was “binds”.
